# Screen size: about 120,000 compounds; about 5,300 (4.4%) were called active. The shares of active, inactive and inconclusive entries below differ from those in the screen. Calls follow the shape of the dose curve; as a rule, active = well fitted inhibition curve with a large enough effect; inconclusive = small, poorly fitted or top-dose-only effect; inactive = no such curve, though single readings can be large or run the other way. Potencies beside an inconclusive call are fits to weak or partial responses and may not hold up.
# Experiment: qHTS Primary assay for Inhibitors of Plasmodium falciparum Dd2 growth in vitro; also: nearly all actives have a fitted effect of over 65% in size
# Conditions: P. falciparum Dd2 growth, SYBR Green, 72 h; series mostly up to 28.9 µM
# How it was run: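 Infected erythrocytes (Dd2, 0.3% parasitemia, 2.5% hematocrit final) are added to compound in RPMI-1640/Albumax II medium, grown 72 h at 37C in low oxygen, then lysed with saponin/Triton-X containing SYBR Green and read by fluorescence.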
# Potency is read from the fitted curve at half-maximal effect; tags tell the direction and shape of the fitted curve.
row,SMILES,Potency
1,CN1c2cc(C(=O)Nc3ccc(Cl)cc3)ccc2C(=O)N2CCCCCC21 (configuration not stated),inactive
2,CC1CCN(c2ncncc2-c2nc(-c3ccccc3)no2)CC1,"inconclusive: 0.708 µM [inhibitor, full curve, poor fit]"
3,CC(=O)N1CCC(N2CCC[C@H]2c2nc(-c3ccc(-c4ccncc4)nc3)no2)CC1,"inconclusive: 14.1 µM [inhibitor, single point]"
4,O=C(C1CCC1)N1CCC(c2nc(-c3ccc4nc[nH]c4c3)no2)CC1,"inconclusive: 10 µM [inhibitor, partial curve, poor fit]"
5,CC(C)n1c(=O)c2oc3ccccc3c2n(CC(=O)Nc2ccccc2Cl)c1=O,"inconclusive: 15.8 µM [inhibitor, single point]"
6,O=C1CCN(S(=O)(=O)c2ccccc2)CCCN(C(=O)CCCc2ccccc2)CCN1,"inconclusive: 17.8 µM [inhibitor, single point]"
7,CCN(CC)CCCNc1oc(-c2ccc(OC)cc2)nc1C#N,inactive
8,Cn1ncc2c(C(=O)N3CCOCC3)cc(-c3cc(Cl)cc(Cl)c3)nc21,"inconclusive: 5.01 µM [inhibitor, partial curve, poor fit]"
9,CC(=O)N1CCCc2cc(S(=O)(=O)N3CCCC(C(=O)Nc4ccc(C)c(F)c4)C3)ccc21 (configuration not stated),"inconclusive: 12.6 µM [inhibitor, partial curve, poor fit]"
10,CCc1nc2nc(C)cc(Nc3ccc(F)c(Cl)c3)n2n1,active: 3.55 µM
11,CCN(CC)Cc1ccc2c(c1)CN(C(=O)Cc1c[nH]c3ccccc13)CCO2,"inconclusive: 3.98 µM [inhibitor, partial curve, poor fit]"
12,COc1cc(Cl)cc(CN2CCC(O)(c3ccccc3)CC2)c1OC,"inconclusive: 8.91 µM [inhibitor, partial curve, poor fit]"
13,CCNc1ncc(CN2CCCC(CCc3cccc(C(F)(F)F)c3)C2)cn1 (configuration not stated),active: 7.94 µM
14,COC[C@@H]1[C@H](C(=O)NCc2cc(OC)ccc2OC)CCC(=O)N1C,"inconclusive: 2.51 µM [inhibitor, partial curve, poor fit]"
15,COc1ccc(N2CC(C(=O)N3CCC(C(=O)N4CCN(Cc5ccccc5)CC4)C3)NC2=O)cc1 (configuration not stated),inactive
16,CC(C)(C)c1ccc(C(=O)Nc2nnc3n2CCS3)cc1,"inconclusive: 8.91 µM [inhibitor, partial curve, poor fit]"
17,CC(Cn1cccn1)Nc1ccc(-c2nc(COc3ccccc3)no2)cn1 (configuration not stated),"inconclusive: 17.8 µM [inhibitor, single point]"
